The supplement of paper PMC3334620
The full ranking holds about 33,000 sequences; the median of “E-score (-0.5 to 0.5)” is about -0.013, and the highest 2% start at about 0.3. The list shows a part of the results.

target: T1, Msn1 (UniProt P22148); experiment: PBM E-score (8-mer binding enrichment) (E-score (-0.5 to 0.5)); higher = stronger / more preferred TF binding; most listed sequences are background and not binding sites; settings: protein concentration: 200 nM; construct: GST-full length
T1 sequence: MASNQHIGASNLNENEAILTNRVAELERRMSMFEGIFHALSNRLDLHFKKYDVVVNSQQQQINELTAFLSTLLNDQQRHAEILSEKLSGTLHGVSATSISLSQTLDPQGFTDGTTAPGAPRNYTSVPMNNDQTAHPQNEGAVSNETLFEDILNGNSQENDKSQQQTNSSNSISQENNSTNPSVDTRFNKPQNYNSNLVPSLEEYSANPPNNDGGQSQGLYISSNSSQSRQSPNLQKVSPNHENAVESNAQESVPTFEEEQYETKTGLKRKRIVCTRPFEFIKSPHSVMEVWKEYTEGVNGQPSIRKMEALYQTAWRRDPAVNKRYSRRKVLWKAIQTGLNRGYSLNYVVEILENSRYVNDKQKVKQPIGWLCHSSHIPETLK
Outline: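 Bound GST-tagged yeast transcription factors, applied at about 100-200 nM to double-stranded universal all-10-mer Agilent arrays, were detected with fluorescent anti-GST. Scans were normalised with masliner. A modified Wilcoxon-Mann-Whitney statistic, the E-score, was assigned to each ungapped eight-base word pooled with its reverse complement by the Universal PBM Analysis Suite.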

Sequence | PBM E-score
CCAAGCTA | -0.0997
AAATAGAG | 0.0998
CGGGAACA | 0.115
AACGACAG | -0.0454
GACGCCAA | -0.157
GAAGAGTA | -0.102
CCCAGAAA | 0.0976
TAGCCGGA | -0.0178
GGGCAAAC | -0.00772
CGTTCTGC | 0.0987
ACGTGTGG | -0.205
CTCGGCAC | -0.0507
AGTTGTGG | -0.00841
ACCAAGCC | -0.0985
AAGGCTAC | -0.138
ACACGTCT | 0.0624
AAACGAGC | -0.0279
CTACACCA | -0.216
ATTCACCA | 0.0317
CTTGTACA | 0.311
CCAACATC | -0.00901
AAACCGCT | -0.0604
CCTGAGCC | -0.165
ACATGGTC | -0.0129
AGTTTAAT | 0.211

Sequence | PBM E-score
AATCTAAG | 0.00698
TCTTGGCA | 0.125
CCTAACTC | -0.0997
CAAACGTC | 0.181
CTCTGCCA | -0.288
GCATACCC | -0.0839
CTCGGACA | 0.44
ATATTAAC | 0.0178
ATAACAAC | 0.154
GCTCGTTA | -0.0548
AATGGCTC | 0.218
CGTAGGCA | -0.203
CTAATTGA | -0.116
CCACAATA | -0.105
ATTGTCTA | 0.391
ATCTGATA | -0.234
GCAATCGC | -0.104
GCGGTAAA | 0.161
ATACCTCC | -0.0821
ACGCTCCA | -0.179
CCCGCCCG | 0.0671
ACCTCCCC | -0.0695
AGATTGAA | 0.0836
TCTCCGAA | 0.0926
AACATACC | 0.107

Sequence | PBM E-score
ACAGGATA | 0.054
TCATACCA | 0.124
GCTACAGA | 0.00547
CCTGACCA | 0.101
CGCGGTAG | -0.00222
CAGACTTA | 0.135
GCGACAAA | 0.355
ACACTGAA | 0.0976
ATCTCAAA | 0.131
GAACTGCA | 0.0252
GATATCAA | -0.0116
CAAGACTA | 0.0327
CATGGGAG | -0.0233
TGTGGCAA | 0.0358
GACTCCAA | -0.2
AGGGCACA | -0.0882
GATCCTCA | 0.0448
ATGCCAGC | -0.298
CAGTCTCA | -0.093
GGGATCCC | -0.159
AGCATGAT | -0.0844
AGTAACAT | 0.121
AGACGTAG | 0.0019
ATGGACGC | 0.122
ACCTACGC | -0.0682

Sequence | PBM E-score
AAGGCCGA | 0.0764
AGCTGACC | -0.131
CGCGAACG | 0.0532
AAACGATC | 0.0597
CGGCCTCC | -0.217
GAATAGGC | -0.103
CATTTCAA | 0.176
GAGGCATA | 0.0447
GCTGGAAA | -0.0496
AATCTCCG | -0.0674
TGCCTGAA | -0.0759
CTCGGCCC | -0.164
CTCCGATC | 0.0333
ACTCACAG | -0.07
AGGAATAG | 0.0389
ACTGCCGG | -0.0605
AAAGTATC | 0.165
ATAAACCA | 0.0509
ATCGCCTC | -0.0571
ACTACTGA | -0.063
GAAGGTGA | -0.0331
AAAACTTC | -0.104
GGGATGAA | -0.202
AGTGCTTC | -0.0765
AGCATTAC | -0.187

Sequence | PBM E-score
ACCGTTGA | -0.0115
CTGACCCC | -0.119
ACACTTAT | 0.0932
AATCCTCT | -0.265
ACCGTACT | -0.0352
CACTTCAG | -0.0588
GGTTGGGA | -0.0804
CATATCGA | -0.0141
CAGGCGGC | -0.206
CTCAACAC | -0.00239
CCACTCCC | -0.272
ATCTATAC | 0.0829
CGGCTTGC | -0.0534
AACACAGC | 0.225
ACCCACCC | -0.165
GGTAGTAC | -0.071
CTCCCGCA | -0.12
GACATCAA | 0.285
AACACAAG | -0.0716
TGAAAACA | 0.178
AGAAAGCA | 0.0764
AAGGTATG | 0.0446
ATTCGAGA | 0.0754
ACTTGTGA | -0.103
GGAAGGAA | -0.223

Sequence | PBM E-score
AGTCCCTC | -0.0351
ACTCCGTC | -0.0715
GCCCGAAC | 0.0645
CTCTCGGC | -0.126
AAGTGGGA | 0.159
CCTCAACC | -0.234
AGCTAGCC | -0.155
ACTTACAG | 0.09
CGCGGTCA | -0.0597
ACATCGGG | -0.00528
GAACCTAC | -0.19
ACTTAGTA | 0.0124
AAGCCTGA | -0.125
GTACTAGA | 0.308
AAAATCCC | -0.0379
GCTGACAA | 0.224
CTTGCAAC | 0.0457
ATACAGAG | -0.0876
GCCGCAAC | -0.126
ATCAACGC | -0.0121
GGTGCCCA | -0.227
AGTACGTG | -0.0456
CCAGCTAG | -0.16
CTCAGGCA | -0.0313
AGAAGAAG | -0.0785

Sequence | PBM E-score
GATAGCGA | -0.0372
CCTGTGCC | -0.211
CTGGTCCA | -0.0285
ATACCGCA | -0.00103
CCGATGCA | -0.0829
AATACGAT | 0.113
GTTGGCGA | -0.0279
CCGGATCA | 0.0422
CAGTCTCG | -0.093
ATACAGGG | 0.0373
CTCTACTA | -0.0557
ATACGCGA | 0.0515
GTAGATGA | 0.0935
TGGATCCA | 0.198
GGCGAAAC | -0.027
AATCTTAG | 0.0592
AGTGTTAT | -0.0666
ATTTGCGC | 0.104
GATCCCAC | 0.0423
CTGCCATA | 0.0725
AGCGCTAC | -0.227
AAAGAGGG | -0.307
